Data as given in PubChem BioAssay AID1508623 (National Center for Advancing Translational Sciences (NCATS), 2021).
The whole screen tested about 48,000 compounds, of which about 450 (0.94%) were called active. Not shown: some 19% with an inconclusive outcome. Calls follow the shape of the dose curve; as a rule, active = well fitted inhibition curve with a large enough effect; inconclusive = small, poorly fitted or top-dose-only effect; inactive = no such curve, though single readings can be large or run the other way. Some of the results follow.

Assay: Primary qHTS for Identification of Small Molecule Inhibitors of Huntingtin Promoter Activity; also: nearly all actives have a fitted effect of over 50% in size
Settings: HEK293 HTT promoter firefly luciferase reporter (activity 0% = vehicle and -100% = no light), 24 h; series mostly up to 57.5 µM; activity change, negative = inhibition: at the top concentration
Source text: Assay Provider: Russell L. Margolis M.D.
Department Neurology, Johns Hopkins University School of Medicine, Baltimore, MD
Huntington's Disease (HD) is a neurodegenerative disorder caused by a CAG repeat expansion in exon 1 of huntingtin (HTT). While there are currently no disease-modifying treatments for HD, recent efforts have focused on development of nucleotide-based therapeutics to lower HTT expression. As an alternative to siRNA or oligonucleotide methods, we hypothesized that suppression of HTT expression might be accomplished by small molecules that either (1) directly decrease HTT expression by suppressing HTT promoter activity or (2) indirectly decrease HTT expression by increasing the promoter activity of HTT-AS, the gene antisense to HTT that appears to inhibit expression of HTT.
We developed and employed a high throughput screen for modifiers of HTT and HTT-AS promoter activity using luminescent reporter HEK293 cells; of the 52,041 compounds tested, we identified 898 replicable hits. We used a rigorous stepwise approach to assess compound toxicity and the capacity of the compounds to specifically lower huntingtin protein in 5 different cell lines, including HEK293 cells, HD lymphoblastoid cells, mouse primary neurons, HD iPSCs differentiated into cortical-like neurons, and HD hESCs. We found no compounds which were able to lower huntingtin without lowering cell viability in all assays, though the potential efficacy of a few compounds at non-toxic doses could not be excluded.
SEQUENCE No. (1, 2, 3, etc.); […] (e.g., Cells, Incubation, Reagent, etc.); VALUE and DESCRIPTION.
1; Reagent; 4 uL; 2,500 Hek293 luciferase reporter cells per wells
3; Compound; 23 nL; Control inhibitor / compound library
5; Reagent; 2.5 uL; Firefly Luc reagent; Dual-Glo Luciferase Reporter Assay System (Promega)
6; Time; 10 min; room temperature incubation
7; Detection; Luminescence; FLuc
NOTES (numbers refer to sequence above)
1; High-throughput screening, measuring luminescence from a Hek293 luciferase reporter, was performed in 1,536 well white-walled tissue-culture treated plates. 2,500 cells were plated in 4 µL of Opti-MEM per well using a Multidrop Combi Reagent Dispenser (ThermoFisher).
2; Assay plates were cultured for 24 hours.
3; Control inhibitor (PTC124; final concentration of 50 uM) and compound library (at final concentrations of 460 nM - 57.5 uM) were added to the assay plate using the Kalypsis Pintool Robotic System equipped with 1536 pinheads.
4; Cells were then incubated for 24 hours at 37 degrees C prior to luminescence measurements.
5; In all cases, luminescence was measured using the Dual-Glo Luciferase Reporter Assay System (Promega) following the manufacturer's instructions.
6; Room temperature incubation.
7; Luminescence signal was obtained using the PerkinElmer ViewLux plate reader. Results were normalized to vehicle control (0% activity) and zero RLU (-100% activity).
Potency is read from the fitted curve at half-maximal effect.

Activity change, negative = inhibition, inactive:
COc1ccc(-n2c(=O)c3sc4ccccc4c3n(C)c2=O)cc1 1.97%
CCOC(=O)Cc1ccc(NC(=O)N2CCSc3ccccc32)cc1 -1.77%
Cc1ccc(-c2nc(CS(=O)CC(=O)NCc3ccccc3Cl)c(C)o2)cc1 (stereo not given) -5.87%
CCCN(CCC)CCCNC(=O)C1CCCN(Cc2nc(-c3ccc(Cl)cc3)oc2C)C1 (stereo not given) -20.8%
COc1ccccc1NC(=O)CSC1=Nc2ccccc2C2=NC(CCC(=O)NCc3ccco3)C(=O)N12 (stereo not given) -9.94%
O=c1ccc2cc(S(=O)(=O)Nc3ccc(F)c(Cl)c3)ccc2[nH]1 -18.1%
CCOc1ccc2nc(SCC(=O)Nc3ccc(F)cc3)nc(-c3ccccc3)c2c1 -1.16%
COc1cccc(CNC(=O)Cc2c(C)c3c(cc(C)c4c(C)c(C)oc43)oc2=O)c1 -0.83%
Cn1nnc2c(NCc3ccc(Cl)cc3)ncnc21 -10.5%
COc1ccc(OC)c(NC(=O)C2Cc3ccccc3CN2S(=O)(=O)c2ccc(F)cc2)c1 (stereo not given) -26.7%
CC1=C(C(=O)Nc2ccc(Cl)cc2)C(c2ccccc2F)n2nc(SCc3cccc(Cl)c3)nc2N1 (stereo not given) -3.6%
O=C(Nc1nc2ccccc2n1CCN1CCOCC1)c1cccc([N+](=O)[O-])c1 -0.354%
Cc1ccc(Cn2c(=O)n(CCc3ccc(Cl)cc3)c(=O)c3ccccc32)cc1 -11.5%
Cc1ccc(-n2ncc3c(NC(C)c4ccccc4)ncnc32)cc1 (stereo not given) -11.2%
COc1ccc(NC(=O)Cn2c(=O)n(Cc3ccccc3OC)c(=O)c3cccnc32)cc1Cl -27.1%
Cc1sc2ncn(CC(=O)Nc3ccc(C(C)C)cc3)c(=O)c2c1S(=O)(=O)N1CCN(c2ncccn2)CC1 -19.6%
CC1(C)N=C(SCc2ccccc2Cl)c2ccccc2N1 -7.27% [at 11.5 µM]
Cc1ccc(S(=O)(=O)c2nnn3c2nc(NC(C)C)c2cc(Cl)ccc23)cc1C -11.3%
Cc1cccc(-c2noc(-c3cccnc3NCc3ccc(Cl)cc3)n2)c1 6.3%
COc1ccc2c(c1)sc1ncc(C(=O)NCc3ccccc3F)c(=O)n12 7.13%
O=C(CCSCc1cccc(Cl)c1)N1CCN(c2ccc(Cl)cc2)CC1 -11.9%
Cc1ccccc1C(=O)N1CC(=O)Nc2ccc(Cl)cc2C1c1ccccc1 (stereo not given) -26.3%
CCOc1ccc(NS(=O)(=O)c2ccc(C(=O)N(C)C)s2)cc1 -53.5%
O=C(c1cccc(Cl)c1)N1c2nc(-c3ccco3)nn2C2(CCCCC2)[C@@H]2CCCC[C@@H]21 -5.57%
COc1ccc(CCNC(=O)CCCCn2c(=O)c3ccccc3n(CC(=O)Nc3c(C)cccc3C)c2=O)cc1OC -6.93%
C#CCn1c(=NC(=O)c2ccc3c(c2)OCCO3)sc2cc(OC)c(OC)cc21 -4.11%
COc1cc(OC)cc(N2C(=O)N(Cc3ccc(C(C)(C)C)cc3)c3ccccc3S2(=O)=O)c1 -13.4%
COc1ccc(S(=O)(=O)N2CCC(C(=O)Nc3ccccc3)CC2)cc1OC -15.7%
CCOC(=O)c1c(C)[nH]c(C)c1S(=O)(=O)NCC(=O)Nc1cccc(C#N)c1 -21.8%
COC(=O)c1scc(-c2ccc(C)cc2)c1S(=O)(=O)N1CCN(c2ccccc2)CC1 -17.8%
Cc1nc2ccc(S(=O)(=O)CCC(=O)Nc3ccc(Cl)cc3)cc2s1 -16.7%
CCOc1ccc(NC(=O)c2c(NCc3cccc(OC)c3OC)sc3c2CCC3)cc1 -10.3%
Nc1c(C(=O)Nc2ccccc2Cl)c2ccccn2c1C(=O)c1ccccc1 -5.38%
COc1ccc(OC)c(CNC(=O)c2ccc3c(c2)c(C)c(C)n3Cc2ccc(Cl)cc2)c1 -23.4%
O=C1NCN(c2ccccc2)C12CCN(CCCC(c1ccc(F)cc1)c1ccc(F)cc1)CC2 -22.8%
CCOC(=O)N1CCN(C(=O)CN(c2ccccc2F)S(=O)(=O)c2ccc(C)cc2)CC1 -21.1%
Cc1cc(N2CCC(C)CC2)nc2ccc(NC(=O)Cc3c(F)cccc3Cl)cc12 -20.3%
Cc1ccc(Cn2cc(S(=O)(=O)c3cccc(Cl)c3)c(=O)c3cc(F)c(N4CCCCC4)cc32)cc1 -5.42%
Cc1cc(C)cc(NC(=O)CSc2nc(=O)n(CCN3CCOCC3)c3c2CCC3)c1 -14.1%
COC(=O)c1c(NC(=O)Cc2coc3cc(C)ccc23)sc2c1CCC2 -8.09%
Cc1ccc(Cl)cc1NC(=O)CSc1nccn1C 5.2%
CCOC(=O)c1noc2nc(C)n(CC(=O)NC(C)CC)c(=O)c12 (stereo not given) -1.72%
Nc1ccccc1NC(=O)c1ccc(CNC(=O)OCc2cccnc2)cc1
O=C(NCc1cccs1)c1ccc2c(c1)N(Cc1cccc(F)c1)C(=O)c1ccccc1S2 0.96%
Cc1oc(-c2cccc(Cl)c2)nc1CS(=O)(=O)CC(=O)NC(C)CCc1ccccc1 (stereo not given) -13.1%
O=C(CSc1ccc(-c2cccs2)nn1)Nc1ccccc1C(F)(F)F -15.3%
Cc1ccc(NC(=O)C2CCCN(C(=O)c3cnn(-c4ccc(F)cc4)c3-n3cccc3)C2)c(Cl)c1 (stereo not given) -19.6%
Cc1ccccc1CNC(=O)C(C)N(c1ccccc1)S(C)(=O)=O (stereo not given) -10.2%
CC1(C)O[C@H]2[C@@H](O1)[C@@H](C(=O)Nc1ccccc1C(F)(F)F)O[C@@H]1OC(C)(C)O[C@@H]12 -32.3%
O=C(CCC1N=C2c3ccccc3N=C(SCc3ccc(F)cc3)N2C1=O)NCCc1ccccc1 (stereo not given) -28.5%
COc1ccc(Cl)cc1NC(=O)C(C)Sc1nc2c(c(=O)[nH]1)CCCC2 (stereo not given) -18.9%
CCCc1nn2c(=O)cc(COC(=O)c3ccccc3NC(=O)COc3ccccc3)nc2s1 -13.1%
CCOC(=O)c1cc(S(=O)(=O)Nc2cc(F)ccc2C)[nH]n1 -7.7%
COc1ccccc1NC(=O)c1c(NCc2ccc(C)o2)sc2c1CCCCC2 7.92%
O=C(OCc1ccccc1)c1ccc(O)cc1 39.3%
CCc1ccc(NC(=O)Cn2c(=O)n(CCC(C)C)c(=O)c3cccnc32)cc1 -3.81%
COc1ccc(-c2cc(C(F)(F)F)n3nc(-c4ccccc4)cc3n2)cc1OC -2.41%
CC(=O)Nc1nonc1-c1nnc(SCc2ccccc2F)n1C -3.41%
CC(C)(C)C(=O)OCOC(=O)[C@@H]1N2C(=O)[C@@H](NC(=O)[C@H](N)c3ccccc3)[C@H]2SC1(C)C 2.64%

Potency, active:
COc1ccc(-n2c(-c3ccco3)nc3c(cnn3-c3ccc(Cl)cc3)c2=O)cc1 35.5 µM
